Measurements reported in paper PMC6443961.

Target: recombinant enolase of S. pneumoniae serotype 2 (ATCC 11733) (Streptococcus pneumoniae serotype 2 (ATCC 11733)) (UniProt Q97QS2)
Experiment: SPR; rEno immobilised by amine coupling on CM5 chip (BIAcore T200), VWF or A domains as analyte, PBS pH 7.4 with 0.05% Tween 20, 25°C, 10 μl/min, 1:1 Langmuir model

UniProt Q97QS2, sequence (Q97QS2 whole entry): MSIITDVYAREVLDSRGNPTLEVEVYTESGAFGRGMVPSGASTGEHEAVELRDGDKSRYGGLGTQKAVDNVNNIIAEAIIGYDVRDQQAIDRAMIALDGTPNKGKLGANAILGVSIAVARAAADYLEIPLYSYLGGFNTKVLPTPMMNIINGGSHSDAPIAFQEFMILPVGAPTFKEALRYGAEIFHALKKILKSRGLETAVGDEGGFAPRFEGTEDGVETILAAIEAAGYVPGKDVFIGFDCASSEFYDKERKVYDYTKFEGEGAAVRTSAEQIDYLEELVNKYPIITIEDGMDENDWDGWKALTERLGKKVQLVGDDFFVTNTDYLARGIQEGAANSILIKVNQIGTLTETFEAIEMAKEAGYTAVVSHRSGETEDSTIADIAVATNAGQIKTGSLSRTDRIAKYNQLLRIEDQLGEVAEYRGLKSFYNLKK

## human plasma von Willebrand factor (a stretch of the chain, chain not printed) (natural protein; other documents disagree on this pair)
  Kd: 5.36 nM
